The values that follow come from patent publication US20250340562A1, “CHROMANE IMAGING LIGANDS” (The General Hospital Corporation, priority 2021, published 2025).

Data set [1] in a line: rat liver microsome stability. The format is in vitro ADME, Sprague-Dawley rat. As to conditions: remaining at 60 min vs 0 min, NADPH, 37° C. As for the experimental part:
Rat liver microsome stability. The rat liver microsome stability was measured by our previously described method. Briefly, 1.5 μL of 1 mM compound solution in DMSO was added to an Eppendorf tube containing 432 μL of PBS buffer. The tube was kept at 37° C. for 10 min before a 13 μL aliquot of the Sprague-Dawley rat liver microsome (Sigma-Aldrich, No. M9066) was added. The tube was vortexed before shaken at 37° C. for 5 min. The NADPH (50 μL, 10 mM in PBS solution) was added and the resulting mixture was incubated at 37° C. for 0 min and 60 min, separately, before the addition of 250 μL of ice-cold acetonitrile. The mixture was centrifuged at 10,000 g for 20 min and supernatant was collected for analysis on the HPLC system (UltiMate 3000). The same analytical conditions were employed as those in the Log D7.4 assay. The liver microsome stability value was expressed as (peak area at 60 min)/(peak area at 0 min)×100%. The assay was repeated at least three times for each compound. Compound 24 was used as internal standard and N-(4-chloro-3-methoxyphenyl)pyridine-2-carboxamide (ML128) was employed as positive control.
(In general: Liver microsomes are a subcellular fraction often used to study metabolism.)

Data set [2] in a line: rat plasma stability. The format is in vitro ADME. As to conditions: remaining at 60 min vs 0 min, 37° C. As for the experimental part: Rat plasma stability. The rat plasma stability was determined by our previously described method. Briefly, the test compound (2.5 μL, 1 mM DMSO stock solution) was mixed with an aliquot of rat serum (100 μL, Abcam, Inc.) in an Eppendorf tube. The tube was vortexed and incubated at 37° C. for 0 min and 60 min, separately, before the addition of 250 μL ice-cold acetonitrile. The resulting mixture was centrifuged at 10,000 g for 20 min and the supernatant was collected for analysis on the HPLC system (UltiMate 3000). The same analytical conditions were used as those in the Log D7.4 assay. The plasma stability value was expressed as (peak area at 60 min)/(peak area at 0 min)×100%. The assay was repeated at least three times for each compound. Compound 24 was used as internal standard.

Data set [3] has as its target T1, mGluR2 (Rattus norvegicus, UniProt P31421). As to the kind of experiment: PET imaging of [11C]13 in rats, pretreatment (blocking) studies. Particulars: for decrease of radioactivity accumulation, average across ROIs: blocking agent iv 1 min before [11C]13.
Data set [4] relates to group II mGluRs. As to conditions: literature value; read-out: IC50 (group II NAM); cited from earlier work.
Data set [5] has as its target T1, mGluR2. Also noted: host or cells: rat brain in vivo. As to conditions: rat brain, earlier tracers; cited from earlier work.
Where [6] appears, read: 1 min before tracer, highest decrease.
Where [7] appears, read: 1 min before tracer, least decrease.

T1 sequence (P31421 19-872): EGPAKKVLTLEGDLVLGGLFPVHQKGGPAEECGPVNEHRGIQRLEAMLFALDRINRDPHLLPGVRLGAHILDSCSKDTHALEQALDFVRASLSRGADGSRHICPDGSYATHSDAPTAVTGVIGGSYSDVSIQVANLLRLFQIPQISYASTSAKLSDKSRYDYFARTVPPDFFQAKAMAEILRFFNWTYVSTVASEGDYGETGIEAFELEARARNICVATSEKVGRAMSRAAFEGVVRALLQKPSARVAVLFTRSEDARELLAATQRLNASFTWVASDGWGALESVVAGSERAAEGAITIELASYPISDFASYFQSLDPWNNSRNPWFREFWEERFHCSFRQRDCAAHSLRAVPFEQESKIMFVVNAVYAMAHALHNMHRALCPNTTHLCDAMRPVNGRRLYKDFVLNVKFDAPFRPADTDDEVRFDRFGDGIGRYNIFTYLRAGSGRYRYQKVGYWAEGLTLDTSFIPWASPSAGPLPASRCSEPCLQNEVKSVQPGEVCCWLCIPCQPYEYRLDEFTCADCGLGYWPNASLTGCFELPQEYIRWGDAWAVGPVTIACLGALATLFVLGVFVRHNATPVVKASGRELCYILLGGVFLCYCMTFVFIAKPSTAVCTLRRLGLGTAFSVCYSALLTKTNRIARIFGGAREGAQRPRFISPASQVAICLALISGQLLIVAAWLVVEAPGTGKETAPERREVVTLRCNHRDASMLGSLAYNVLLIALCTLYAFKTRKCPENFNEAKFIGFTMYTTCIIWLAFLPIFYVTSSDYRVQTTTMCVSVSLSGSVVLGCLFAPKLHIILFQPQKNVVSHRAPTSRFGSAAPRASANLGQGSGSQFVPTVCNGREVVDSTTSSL

On to `CC1(C)CCc2c(-c3ccc(F)cc3F)cc(C(N)=O)nc2O1` [Compound 12, 5-(2,4-difluorophenyl)-2,2-dimethyl-3,4-dihydro-2H-pyrano[2,3-b]pyridine-7-carboxamide], for which, in data set [1], the “rat liver microsome stability” value was > 92%. Moreover, the rat plasma stability in data set [2] is > 92%.

As for `N#Cc1cc(C2=Nc3ccc(Br)cc3NC(=O)C2)ccn1` [MNI-137], the “decrease of radioactivity accumulation, hypothalamus” value in data set [3] (setting [6]) was found to be 42.6%. For the same molecule, the “decrease of radioactivity accumulation, cerebellum” value in data set [3] (setting [7]) was found to be 39.6%; in data set [3] (20 min before tracer, highest decrease) it was 15.2%. The “decrease of radioactivity accumulation, striatum” value in data set [3] (20 min before tracer, lowest decrease) is reported as 11.1%. Besides, the “decrease of radioactivity accumulation, average across ROIs” value in data set [3] (9 0.5 mg/kg, 26 0.2 mg/kg) turned out to be 41.7±1.1%. Further, the “decrease of radioactivity accumulation, total average” value in data set [3] (blocking agent iv 20 min before [11C]13, 9 0.5 mg/kg, 26 0.2 mg/kg) stood at 12.7±1.7%. The IC50 in data set [4] is 8.3 nM.

Turning to `Cn1ccc(COc2cnc(C(N)=O)cc2-c2ccc(F)cc2)n1` [VU6001966], the “decrease of radioactivity accumulation, cortex” value in data set [3] (setting [6]) worked out at 38.5%. In addition, the “decrease of radioactivity accumulation, thalamus” value in data set [3] (setting [7]) turned out to be 17.1%. Besides, in data set [3] (9 0.5 mg/kg, 26 0.2 mg/kg), the “decrease of radioactivity accumulation, average across ROIs” value is recorded as 22.4±7.3%.

Consider `COc1ccc(-c2cc(Cl)nc3c2CC(C)(C)CO3)c(F)c1` [[^11C]MG-1904], for which the SUVmax in data set [5] was 1.7.

A word on the IC50: it is the midpoint of a concentration-inhibition curve.
